Experimental data from the supplement of paper PMC4604168 (melanoma cell lines).
Some of the results follow. Single values are uncertain, as repeats are few or missing.

What was measured:
Test in all cases: cell count relative to DMSO control; melanoma cells; higher = more viable cells
Details in all cases: library dose: standard library concentration; 72 h
G361 = system: G361
IPC-298 = system: IPC-298
IST-MEL1 = system: IST-MEL1
LB2518-MEL = system: LB2518-MEL
LOXIMVI = system: LOXIMVI
MEL-HO = system: MEL-HO
MZ2-MEL = system: MZ2-MEL
MeWo = system: MeWo
RPMI7951 = system: RPMI7951
RVH-421 = system: RVH-421
SkMel28 = system: SkMel28
SkMel2 = system: SkMel2
SkMel30 = system: SkMel30
SkMel5 = system: SkMel5
UACC257 = system: UACC257
UACC62 = system: UACC62
WM115 = system: WM115
WM1716 = system: WM1716
WM1745 = system: WM1745
WM3526 = system: WM3526
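Further: cells treated in 1,536-well plates, then fixed and DAPI-stained, with nuclei counted from automated high-throughput microscope images.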

SMILES	cell count (G361) [%]	cell count (IPC-298) [%]	cell count (IST-MEL1) [%]	cell count (LB2518-MEL) [%]	cell count (LOXIMVI) [%]	cell count (MEL-HO) [%]	cell count (MZ2-MEL) [%]	cell count (MeWo) [%]	cell count (RPMI7951) [%]	cell count (RVH-421) [%]	cell count (SkMel28) [%]	cell count (SkMel2) [%]	cell count (SkMel30) [%]	cell count (SkMel5) [%]	cell count (UACC257) [%]	cell count (UACC62) [%]	cell count (WM115) [%]	cell count (WM1716) [%]	cell count (WM1745) [%]	cell count (WM3526) [%]
Cc1cc(N2CCOCC2)cc2[nH]c(-c3c(NC[C@@H](O)c4cccc(Cl)c4)cc[nH]c3=O)nc12 + COc1cc2ncnc(Nc3ccc(Oc4ccccc4)cc3)c2cc1OC [SrcI1] (first compound 1 µM, partner dose 10 µM)	58.6	61.9	98.8	114	63	83.1	72.6	69	66.4	117	59.9	76.1	81.2	63.5	86.4	66.9	80.9	79.8	37.6	41.4
O=C(Nc1ccccc1)c1cc([N+](=O)[O-])ccc1Cl + c1cc(-c2cnn3cc(-c4ccc(OCCN5CCCCC5)cc4)cnc23)ccn1 [Dorsomorphin] (first compound 10 µM, partner dose 2 µM)	47.4	85.1	88.4	34	54.3	87.2	56.8	71.4	35.8	103	32.8	81.4	86.6	50.6	43.2	35.5	61.3	61.5	45	73.1
O=C(O)[C@@H]1[O][Sb](=[O])([O][Sb]2(=[O])[O][C@H]([C@H](O)CO)[C@H](O)[C@H](C(=O)O)[O]2)[O][C@H]([C@H](O)CO)[C@@H]1O (stereo not given in full) [stibogluconate] + CN(C)S(=O)(=O)c1ccc2c(c1)/C(=C/c1cc3c([nH]1)CCCC3)C(=O)N2 [SU6656] (first compound 10 µM, partner dose 2 µM)	60.2	59.6	56	76.8	84.4	75.9	73.8	47.6	42.3	72.8	45.1	84.9	75.9	59.8	60.3	72	43.2	37.8	55.3	65.8
O=C(O)c1ccc2c(c1)nc(Nc1cccc(Cl)c1)c1ccncc12 + COc1ccc(Cl)c(Nc2nc3ccccc3nc2NS(=O)(=O)c2cccc(NC(=O)C(C)(C)N)c2)c1 [XL147] (first compound 2 µM, partner dose 4 µM)	61.9	64.9	69.7	101	79.5	57.5	55.2	80.9	67.4	93.4	74.4	75.9	69.6	86.8	85	86.1	86.3	110	69.5	65.9
O=C(O)[C@@H]1[O][Sb](=[O])([O][Sb]2(=[O])[O][C@H]([C@H](O)CO)[C@H](O)[C@H](C(=O)O)[O]2)[O][C@H]([C@H](O)CO)[C@@H]1O (stereo not given in full) [stibogluconate] + C=CCn1c(=O)c2cnc(Nc3ccc(N4CCN(C)CC4)cc3)nc2n1-c1cccc(C(C)(C)O)n1 [MK1775] (first compound 10 µM, partner dose 0.1 µM)	68.2	70.2	107	51.7	40.8	80.5	102	69.1	53.6	99.9	34.4	75.4	89.6	41.9	82.4	61.7	67.5	84.9	36.4	65.6
Cn1nnc2c(C(N)=O)ncn2c1=O [temozolomide] + COc1cc(N2CCC(N3CCN(C)CC3)CC2)ccc1Nc1ncc(Cl)c(Nc2ccccc2S(=O)(=O)C(C)C)n1 [NVP-TAE684] (first compound 10 µM, partner dose 0.4 µM)	75.9	77.5	76.1	138	107	83.4	77.7	70.8	69.3	86.9	47.3	77.3	82	67.6	92.4	69.6	67.7	52.9	62.2	81
O=C(Nc1cc(C(F)(F)F)cc(C(F)(F)F)c1)c1cc(Cl)ccc1O + CC(=O)c1c(C)c2cnc(Nc3ccc(N4CCNCC4)cn3)nc2n(C2CCCC2)c1=O [palbociclib] (first compound 0.08 µM, partner dose 0.2 µM)	67.2	61.4	58.3	61.5	38.9	79.5	67.4	61.8	77.4	80.8	35.9	66.7	64	89.8	82	62.3	50.2	40.2	61.8	61.3
Cc1cc(N2CCOCC2)cc2[nH]c(-c3c(NC[C@@H](O)c4cccc(Cl)c4)cc[nH]c3=O)nc12 + COC(=O)c1sccc1S(=O)(=O)Nc1ccc(Nc2ccccc2)cc1OC [GSK0660] (first compound 1 µM, partner dose 5 µM)	79.2	85.3	99.5	95.7	107	86.4	94.9	89.8	96.8	91.1	79.4	85.6	88.3	53.7	82.1	121	87.1	93.8	61.4	75.9
